Data on 83 compounds can be found in ChEMBL document CHEMBL4888484, “Replenishing the malaria drug discovery pipeline: Screening and hit evaluation of the MMV Hit Generation Library 1 (HGL1) against asexual blood stage Plasmodium falciparum ,using a nano luciferase reporter read-out” (2022).

As a reminder, the % Inhibition is the drop in the measured response relative to a control, in per cent.

Screen size: about 150,000 compounds; about 540 (0.36%) showed an effect of 50% or more. Some of the results follow.

The assay deals with Plasmodium falciparum. Description: Primary screen in NF54 nanoGlo assay, in single point, at 2uM, 72h; a lower Z score goes with more inhibition. The format is functional, Erythrocyte. As to conditions: timepoint 72 hour.
Turning to `CCn1nccc1CN(C)Cc1nnc(C)o1`, the “% Inhibition” value is reported as 0% and the Z score is recorded as 0.04.
`CN(C)C(=O)N1CCN(c2nnc(Cc3ccccc3F)s2)CC1`: the “% Inhibition” value was -9% and the Z score turned out to be 0.91.
Turning to `O=C(O)[C@H]1CN(C(=O)c2cc3c(s2)CCCC3)C[C@@H]1C1CC1`, the “% Inhibition” value is reported as -7% and the Z score is on record as 1.27.
As for `COCc1nsc(NC(=O)c2ccncc2)n1`, the “% Inhibition” value is -16% and the Z score is on record as 1.36.
Regarding `CN(Cc1ccccc1)c1ccc2ccccc2n1`, the “% Inhibition” value is listed as 5% and the Z score is on record as -0.73.
The matching figures for `O=C(NCCc1nccn1Cc1ccccc1)[C@H]1CCn2ccnc2C1`: 5% and -0.73.
As to `C[C@@H](COc1ccccc1F)NS(=O)(=O)N1CCCC1`, the “% Inhibition” value is reported as -12% and the Z score came to 1.5.
As to `O=C(NCc1ccccn1)[C@@H](c1ccccc1)N1C(=O)c2ccccc2C1=O`, the “% Inhibition” value is reported as 0% and the Z score was -0.05.
For the compound `O=C(Nc1ccccc1-n1cc(Br)cn1)c1ccon1`, the “% Inhibition” value amounted to 14% and the Z score is -1.85.
With `Cc1cc(NC(=O)C2CCN(S(C)(=O)=O)CC2)ccc1N1CCCC1=O`, the “% Inhibition” value is listed as -10% and the Z score came to 1.58.
The matching figures for `c1ccc([C@H](CNCc2cnc(N3CCOCC3)nc2)N2CCCCCC2)cc1`: -7% and 0.71.
Consider `Cc1c(NC(=O)C[C@H]2CCCCO2)cccc1N(C)C`, for which the “% Inhibition” value was found to be 4% and the Z score is given as -0.63.
Take `Cc1ccc2nc(-c3ccc(NS(=O)(=O)Cc4ccc(C)c(C)c4)cc3)sc2c1`: the “% Inhibition” value is -18% and the Z score worked out at 2.15.
Consider `Cc1ccc(-c2ccnn2C)cc1NC(=O)[C@H]1CCCOC1`, for which the “% Inhibition” value is listed as 37% and the Z score is reported as -1.42.
Taken in the same sequence, the figures for `NCC1([C@@H]2CCCCN2C(=O)Cc2ccc3cnccc3c2)CCC1` were 6% and -0.87.
Consider `CCn1nc(C)c(CN(CCOC)C(=O)c2ccc3nc(C)oc3c2)c1C`, for which the “% Inhibition” value stood at 6% and the Z score is given as -1.13.
On to `CC1=C(C(=O)N2CCC[C@H](N3CCCC3=O)CC2)CCC1`, for which the “% Inhibition” value is recorded as -9% and the Z score is given as 0.91.
As to `C[C@@]1(C2CC2)NC(=O)N(c2cccc(C#N)c2)C1=O`, the “% Inhibition” value was -10% and the Z score was determined as 1.33.
`O=C(CN1CCOCC1)N1CCN(CCCOc2ccccc2)CC1`: the “% Inhibition” value turned out to be 37% and the Z score was -5.4.
As to `CC(C)c1cc(C(=O)N2C[C@@H](CN3CCOCC3)C[C@H](CO)C2)[nH]n1`, the “% Inhibition” value amounted to 5% and the Z score was -1.06.
Regarding `COC1CCN(c2ccc(NC(=O)c3cc(C)cs3)cc2)CC1`, the “% Inhibition” value is on record as -10% and the Z score came to 1.61.
Regarding `CC(C)N(C)CCNC(=O)N[C@@H](C)c1nc(C(C)(C)C)cs1`, the “% Inhibition” value is -6% and the Z score was determined as 0.64.
With `CCC(=O)Nc1nnn(CCc2ccc(OC)cc2)c1CC`, the “% Inhibition” value was 3% and the Z score is -0.38.
Taken in the same sequence, the figures for `C[C@@H](C(=O)Nc1cccc(S(=O)(=O)N2CCCCC2)c1)N1CCCc2ccccc21` were -11% and 1.12.
The matching figures for `O=S(=O)(CCN1CCn2nc(Cc3ccccc3)cc2C1)c1ccccc1`: -7% and 1.34.
For the compound `CCCN(C)c1nccn2c(=O)n(CC(=O)Nc3cc(C)ccc3C)nc12`, the “% Inhibition” value is reported as -16% and the Z score is 1.52.
For `CC(C)(C)OC(=O)Nc1cc(Br)ccc1C(=O)O`, the “% Inhibition” value worked out at 5% and the Z score was -0.78.
Taken in the same sequence, the figures for `CCCOc1ccccc1-c1nc2c3c(ncn2n1)-c1ccccc1CC31CCCC1` were -6% and 0.91.
The matching figures for `Nc1nccc(-c2cnn(CC(=O)Nc3ccnn3CC3CCCCC3)c2)n1`: -12% and 1.62.
Taken in the same sequence, the figures for `CCn1nccc1S(=O)(=O)N[C@H]1CCOC[C@@H]1OCc1ccccc1` were -6% and 0.65.
With `COc1ccc([C@@H](c2c(O)ccc3ccccc23)N2CCOCC2)c(OC)c1`, the “% Inhibition” value is on record as 2% and the Z score is listed as -0.27.
As to `CCN(C(=O)N1CC[C@H](N(C)Cc2ccccc2)C1)C(C)C`, the “% Inhibition” value is on record as 4% and the Z score was -0.5.
For the compound `O=C(CCC(=O)c1ccccc1)NCCn1ccnc1-c1cnccn1`, the “% Inhibition” value worked out at 5% and the Z score was -0.7.
With `CO[C@@H](C(=O)NCc1ccc[nH]1)c1ccccc1C(F)(F)F`, the “% Inhibition” value was -5% and the Z score was determined as 0.86.
For `CCN(C(=O)c1cccc(F)c1F)[C@H]1CCN(C(=O)c2csc(C)n2)C[C@@H]1O`, the “% Inhibition” value is -6% and the Z score is 0.5.
For the compound `COC(=O)[C@@H]1C[C@@H](NC(=O)c2cccc3ccccc23)CN1`, the “% Inhibition” value stood at 0% and the Z score is recorded as -0.01.
Taken in the same sequence, the figures for `CC(C)CC[C@@]1(C2CCN(C(=O)c3c(F)ccc(F)c3F)CC2)NC(=O)N(CCN(C)C)C1=O` were -9% and 1.68.
On to `CC(=O)NCCc1ncc(C)n1C1CCCC1`, for which the “% Inhibition” value is listed as -7% and the Z score is 0.99.
With `O=C(Cn1nc(N2CCOCC2)c2ccccc2c1=O)Nc1cccc(Cl)c1`, the “% Inhibition” value is -18% and the Z score is 2.65.
On to `COc1ccc(-n2cc(-c3ccc4c(c3)OCO4)n(CC(=O)Nc3ccccc3Cl)c2=O)cc1`, for which the “% Inhibition” value is -12% and the Z score is listed as 2.06.
With `CC(NC(=O)NC1CC1c1cccc(F)c1F)C1CCOCC1` (stereo unspecified), the “% Inhibition” value was -12% and the Z score was determined as 1.64.
For `CN(CC(=O)NCCC[C@H]1CCOC1)Cc1ccncc1`, the “% Inhibition” value is given as -15% and the Z score stood at 1.43.
Take `Cc1cc(=O)n(CC(=O)Nc2ccc3c(c2)OCO3)c(N)n1`: the “% Inhibition” value was 4% and the Z score is listed as -0.76.
Turning to `CCn1cc(NC(=O)NCc2ccc(N3CCCCC3)nc2)cn1`, the “% Inhibition” value is on record as -5% and the Z score was found to be 0.98.
Take `COc1ccc(CNC[C@H]2O[C@H](Cc3cc(CN(C)C)on3)CC[C@@H]2O)cc1`: the “% Inhibition” value is given as 0% and the Z score is 0.07.
Turning to `COc1cccc(Cn2c(=O)c(C(=O)NCc3ccncc3)nn(-c3ccc(C)c(C)c3)c2=O)c1`, the “% Inhibition” value was -9% and the Z score came to 1.44.
For `COc1ccc(/C=C/c2cc(/C=C/c3ccc(OC)cc3)nc(-c3ccc(OC)cc3)n2)cc1`, the “% Inhibition” value was -9% and the Z score turned out to be 1.22.
On to `COCCN1CC2(CCC1=O)CCN(C(=O)c1cn3cccnc3n1)CC2`, for which the “% Inhibition” value was 1% and the Z score is -0.09.
With `Cc1cccc(CN2C[C@@H](O)C[C@H]2c2nnc3n2CCN(C(=O)C(C)C)C3)c1`, the “% Inhibition” value is given as 4% and the Z score is on record as -0.68.
The matching figures for `C[C@@H](CC#CCN1CCOCC1)OC(C)(C)C`: -16% and 2.55.
On to `COc1ccccc1-c1nc2ccc(C)cn2c1NC(=O)Nc1ccc(C)cc1`, for which the “% Inhibition” value is given as -1% and the Z score was 0.13.
Turning to `CC[C@H]1CN(c2ncnc3c2Cc2ccccc2OC3)CCO1`, the “% Inhibition” value is -10% and the Z score came to 1.32.
For the compound `Cc1cc2cc(NC(=O)c3ccc(C)c(NC(=O)[C@@H]4CCCO4)c3)ccc2o1`, the “% Inhibition” value was found to be 5% and the Z score is -0.71.
Taken in the same sequence, the figures for `Cc1nccn1C1(C(=O)O)CCN(Cc2ccccc2C#N)CC1` were -2% and 0.33.
Take `CCN(CC)C(=O)NC1CCN(c2cccnn2)CC1`: the “% Inhibition” value was -7% and the Z score was determined as 0.76.
Turning to `Cn1ncc(-c2ccccc2)c1NC(=O)Cn1ncc2cccnc21`, the “% Inhibition” value was -9% and the Z score stood at 1.8.
Consider `Cc1cncc(C(=O)N2CC(O)CC2CO)c1` (stereo unspecified), for which the “% Inhibition” value was -1% and the Z score worked out at 0.1.
As to `O=C1c2ccccc2C(=O)N1CC#CCN1CCOCC1`, the “% Inhibition” value is -2% and the Z score was 0.38.
In the case of `O=C1Nc2ccccc2CC[C@@H]1N1CCc2sccc2C1`, the “% Inhibition” value is listed as -8% and the Z score was determined as 1.19.
As for `CN1CC[C@@]2(CCC1=O)CN(C(=O)CCc1ccc(F)cc1F)CCN2C`, the “% Inhibition” value is given as -14% and the Z score is 1.6.
Turning to `CC1CCN(C(=O)c2ccc3nnnn3c2)CC1`, the “% Inhibition” value was 25% and the Z score is reported as -2.78.
Taken in the same sequence, the figures for `O=C(c1ccccc1)N1CCC(c2ccn3ncc(C(=O)N4CCCC4)c3c2)CC1` were -11% and 1.83.
Taken in the same sequence, the figures for `CC(C)(CNc1cccc(-n2cnnc2)c1)c1ccccc1` were -3% and 0.62.
For the compound `Cc1cc(C)cc(-n2ncc3c(OCc4c(C)noc4C)ncnc32)c1`, the “% Inhibition” value is on record as -14% and the Z score came out at 1.15.
Taken in the same sequence, the figures for `Cc1cnc(-c2ccccc2)n1C[C@H]1CCCN(Cc2ccncc2)C1` were 7% and -1.18.
The matching figures for `COCCN1C[C@]2(CCCN(C(=O)c3ccc(CO)cc3)C2)CCC1=O`: 1% and -0.21.
As for `COc1nccnc1CNCC1(N2CCOCC2)CC1`, the “% Inhibition” value is 3% and the Z score was -0.48.
The matching figures for `C[C@H](NS(=O)(=O)c1ccc2c(c1)CCN2C(=O)N1CCCC1)C(=O)N1CCc2ccccc21`: -11% and 1.08.
Take `COc1ccc(-[n+]2c(-c3ccc(-c4ccccc4)cc3)cn3c2COCC3)cc1`: the “% Inhibition” value is 58% and the Z score was -11.93.
Consider `C[C@@H]1Oc2ccc(NC(=O)N3CCc4nc[nH]c(=O)c4CC3)cc2N(C)C1=O`, for which the “% Inhibition” value was -3% and the Z score is listed as 0.51.
With `COc1cccc(CNC(=O)[C@H](C)n2nc(C)c3c(C)n(-c4ccc(C)cc4)nc3c2=O)c1OC`, the “% Inhibition” value came to 7% and the Z score is reported as -1.25.
`CC(C)C(=O)N(Cc1cc(NC(=O)C2CCC2)ccc1N(C)C)C1CC1`: the “% Inhibition” value is recorded as -9% and the Z score is given as 1.09.
As for `C[C@@]1(C2CC2)COCCN1C(=O)c1cccc(Oc2nccs2)c1`, the “% Inhibition” value was found to be 8% and the Z score is reported as -1.04.
As to `Cc1cc(C(F)(F)F)n(C[C@@H](C)CNc2cnccn2)n1`, the “% Inhibition” value is reported as -2% and the Z score is 0.25.
As for `CCS(=O)(=O)Oc1cccc(CN(CC2CC2)C(=O)c2ccco2)c1`, the “% Inhibition” value is given as -18% and the Z score was determined as 1.83.
Turning to `Cc1cccc(N(Cc2ccc(C(=O)NCc3ccc(F)cc3)o2)c2nc(-c3ccc(Cl)cc3)cs2)c1`, the “% Inhibition” value is on record as -17% and the Z score is given as 2.45.
Consider `O=C(CC1CCCCC1)Nc1nc2c(s1)C(=O)C[C@@H](C(=O)N1CCN(C(=O)c3ccco3)CC1)C2`, for which the “% Inhibition” value is -13% and the Z score was 1.76.
In the case of `O=C(O)C[C@@H]1CN(Cc2ccc3c(c2)OCCO3)C[C@@H]1c1c[nH]nn1`, the “% Inhibition” value came to 0% and the Z score is given as 0.02.
As to `O=C(Nc1ccc(F)cc1)c1nnn2c1CO[C@H](c1ccccc1)C2`, the “% Inhibition” value was -2% and the Z score stood at 0.28.
Turning to `CC(C)CC(=O)NCCc1ccc(F)cc1`, the “% Inhibition” value is given as -6% and the Z score was determined as 1.21.
For the compound `CCCn1nc(-c2ccc(Cl)s2)cc1C(=O)N1CCN(C(C)=O)CC1`, the “% Inhibition” value was -6% and the Z score turned out to be 1.16.
As to `CN(Cc1ccc(-n2ccnc2)cc1)Cc1noc2c1CCCC2`, the “% Inhibition” value is -8% and the Z score is given as 0.91.
For the compound `COc1ccc(C(=O)N(Cc2ccc3c(c2)OCO3)Cc2cc(-c3ccc(C)cc3C)on2)cc1`, the “% Inhibition” value was -4% and the Z score is recorded as 0.53.
